Over roughly 33,000 sequences, “E-score (-0.5 to 0.5)” has its median near -0.041; the highest 2% begin near 0.37. The list shows a part of the results.
biological target: T1, Ecm22 (UniProt Q05958); assay: PBM E-score (8-mer binding enrichment) (E-score (-0.5 to 0.5)); higher = stronger / more preferred TF binding; most listed sequences are background and not binding sites; details: protein concentration: 200 nM; construct: GST-full length
T1 sequence: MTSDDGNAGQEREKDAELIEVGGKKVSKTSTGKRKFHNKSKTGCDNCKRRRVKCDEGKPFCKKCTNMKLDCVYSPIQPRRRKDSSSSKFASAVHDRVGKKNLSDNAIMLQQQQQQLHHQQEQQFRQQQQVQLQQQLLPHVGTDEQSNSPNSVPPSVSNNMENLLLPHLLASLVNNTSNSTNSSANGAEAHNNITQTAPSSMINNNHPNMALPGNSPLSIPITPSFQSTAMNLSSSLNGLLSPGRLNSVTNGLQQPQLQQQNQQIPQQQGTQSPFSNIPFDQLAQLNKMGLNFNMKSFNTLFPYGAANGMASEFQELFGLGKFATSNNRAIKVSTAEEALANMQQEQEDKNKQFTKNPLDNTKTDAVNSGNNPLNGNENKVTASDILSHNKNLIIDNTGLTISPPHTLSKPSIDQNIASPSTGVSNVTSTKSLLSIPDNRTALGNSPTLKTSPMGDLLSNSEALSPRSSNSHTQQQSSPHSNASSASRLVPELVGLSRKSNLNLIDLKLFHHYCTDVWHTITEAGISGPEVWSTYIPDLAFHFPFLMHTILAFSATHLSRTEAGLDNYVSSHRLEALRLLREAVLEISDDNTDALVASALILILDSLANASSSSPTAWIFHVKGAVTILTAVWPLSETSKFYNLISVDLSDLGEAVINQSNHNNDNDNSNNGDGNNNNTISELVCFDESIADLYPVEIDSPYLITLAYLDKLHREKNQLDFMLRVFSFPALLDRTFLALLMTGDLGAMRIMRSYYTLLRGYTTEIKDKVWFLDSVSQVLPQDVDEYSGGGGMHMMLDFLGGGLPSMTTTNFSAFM
Method: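 Universal 'all 10-mer' protein binding microarrays (Agilent AMADID 015681) probed with GST-tagged S. cerevisiae TFs (full-length or DBD) made by in vitro transcription/translation (PURExpress), about 100-200 nM. Bound TF was detected with fluorescent anti-GST. Each ungapped 8-mer (which stands for itself and its reverse complement) is scored by the PBM enrichment score (E-score), a modified Wilcoxon-Mann-Whitney statistic from -0.5 to +0.5, computed with the Universal PBM Analysis Suite. Scale: above 0.35 generally sequence-specific binding.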

Sequence | PBM E-score
GACGCTTA | 0.219
ACGTAGAT | 0.0678
AGGACCAC | -0.205
GATTCCAC | -0.125
GGCTTCGA | 0.015
CACAAAGA | -0.147
CGCGCCAG | -0.0745
GGCGGGAC | -0.169
ACCTCGTC | 0.17
GTCCTTTA | -0.0994
GTGCCTCA | -0.289
GGTGGAAA | -0.15
GGATAATA | 0.0306
AAGGTGAC | -0.185
AAAGATTC | -0.0192
CTAACATA | 0.0634
GTCGCAAC | 0.186
CACGCGGC | -0.0668
CGATGGGC | 0.0572
CAATACTC | -0.00496
ATGAGCTC | -0.0302
CTAGAAAA | -0.031
CTCTGTTC | -0.23
TCTGATAA | -0.271
TATCCAAA | 0.08

Sequence | PBM E-score
GCTAAAGA | -0.0261
GGTAAAAA | -0.0264
ACTGTCGC | 0.012
AAGGACAC | -0.168
ATATATAT | -0.0111
GCTCACAA | -0.0448
ATATCAAC | -0.103
CTAGGCTC | -0.0741
ACCGCGTG | -0.0457
CGTCCAAC | -0.156
GTCCCGAA | -0.0658
AAGACACA | -0.167
AAATATCT | -0.0801
CAGCATGA | -0.331
ACCGGGTA | 0.18
CGATGTCA | 0.0461
ACGTCTCT | -0.0325
CCATCATC | 0.00724
AACGCTAG | -0.143
TCCAGGCA | -0.00255
AGAACGAG | 0.45
AACCTTTA | -0.146
CCGTCCTC | -0.0393
AAACCGGA | -0.0778
CTTACGGC | 0.148

Sequence | PBM E-score
CTGGCGCA | -0.23
GCTTTGCA | -0.191
AACACCCC | -0.359
GTGCCCAC | -0.234
CCAAGTAA | 0.0825
CTTTTAGA | 0.00647
GACGAGTA | 0.117
AGAGTTAT | -0.16
CCCCCGCC | -0.351
GACACAGC | -0.133
ACTTACGA | 0.393
AGGGTGGA | -0.16
ATAGTATG | 0.0828
CAGTGTAG | -0.0425
ATAACCTC | -0.0672
CACCCGCC | 0.0626
GAAAAACA | 0.00133
CGGGAAGC | -0.0787
GGAACTAC | 0.0311
ACCTCAAA | 0.0237
TAGGAGGA | -0.23
CCCTGGCA | -0.183
ATAGAAAT | 0.0808
CGACTATC | 0.167
ATCCCCAA | -0.219

Sequence | PBM E-score
TAGGGCGA | -0.115
CAAGTCTA | -0.0401
CCTGGTCC | -0.206
TAATGAGA | -0.115
AGTGATTA | 0.092
AATCTGAC | -0.216
CCCTCCGA | -0.0959
GGCTCTCA | -0.299
CATACTTA | -0.0493
AAGATCAG | -0.0549
ACTCGGTA | 0.233
TAGCCCTA | -0.271
CCTATTCG | 0.0854
CTCTGATA | -0.216
CGCGCAGC | -0.0187
AAAGTCGA | 0.00308
GAGCACGC | 0.0715
AATCATAC | 0.264
AACACGCT | -0.0531
ACCGTCTA | -0.0861
CTGTGTCC | -0.164
CTTTTCTC | -0.0797
ACTCTAGC | -0.211
AACTGCTA | -0.118
GAAAGCGA | 0.202

Sequence | PBM E-score
AGCCTCTG | -0.161
AACTAAGA | -0.0189
GATCTAGA | -0.101
ACATCCAT | -0.068
CAGGTGTC | -0.137
CCCAAAGA | -0.236
AGAATGTC | -0.0576
TACGGACA | 0.258
ATCTTGTA | -0.00043
TACACGCA | -0.0384
TAAGCCAA | -0.0583
ACACAATA | -0.112
GACAGTGA | -0.107
GAACCACA | 0.0261
GAGAACAC | -0.0884
CGCCATAA | -0.192
TCGAAGCA | -0.103
ATAAGTCC | -0.0838
ACCCAGAT | -0.203
GACGTGAC | 0.0525
CGGACGTC | 0.105
ATGGCATC | -0.00566
GGAGCGAA | 0.264
GTATTTGA | -0.00911
ATCTATTC | 0.0461

Sequence | PBM E-score
TATTAAGA | 0.12
AGATTTCA | -0.0146
CCTGTTCC | -0.188
ACGGGATG | 0.139
CGTCGCAC | 0.278
CGGTACGC | 0.315
GGGCAGTA | -0.0551
GGGTCACA | -0.116
ATAGAAGA | -0.135
GACCAACA | 0.0643
GCATCATA | 0.00953
ACATAGGT | 0.0224
GACGATAC | 0.127
TCATAGAA | -0.00509
GAAAGTAC | 0.0666
ACACTTGA | -0.173
CCACATAC | 0.178
AGAGCCCC | 0.0308
CCTACGCC | -0.34
AGAGCGAG | 0.307
GTAGACGA | 0.119
ACACACCA | 0.0138
ATCACGCC | -0.0722
CCGAGCCA | 0.138
TCAGGAAA | -0.0259

Sequence | PBM E-score
ATATTGGA | -0.13
AAGTGATC | 0.0249
CTCGGTCA | 0.246
GATTACGC | 0.00603
ACCCGGGG | -0.141
TAGTGGGA | -0.315
ACCGCTAA | 0.144
CATTATCA | -0.129
AGACAATA | 0.111
AGCGAAAG | 0.127
AATTTAAT | 0.0583
GCGAGAGC | 0.182
GCAAATGA | 0.0372
AATTTGCT | -0.0782
CAAATGCA | 0.00544
TAGTATGA | 0.0394
CGAAAGAG | 0.0563
CGCATAAC | 0.168
ATTACGTC | 0.00802
TATTCCGA | 0.0652
AACTTGCT | -0.208
ACCTGGAG | -0.0996

Reference: the supplement of paper PMC3334620
